In paper PMC10668032:
The list shows a part of the results. At the low end of the ranking the order means little.

Each sequence was assayed against SIX1 homeodomain (reference allele) (UniProt Q15475) (assay: universal protein binding microarray). Settings: Universal all-10-mer PBM (8x60K, AMADID 030236), 300 nM GST-tagged protein, Alexa Fluor 488 anti-GST; buffer, salt, pH and temperature not stated; high values mean tight binding; most listed sequences are background and not binding sites; double strand, one strand shown.

Sequence | binding signal
CCGCTCAG | -0.13 E-score
GCGAACGA | -0.0695 E-score
ACACGACG | -0.103 E-score
ACACGTAC | 0.0533 E-score
ACCAGTCC | -0.181 E-score
GGCGTAAC | -0.0886 E-score
ACCATCCC | 0.14 E-score
CCTAAGAA | -0.122 E-score
CTATAAAG | -0.183 E-score
ACCCGTGA | 0.0021 E-score
CGGAGTGC | -0.00819 E-score
AAGTCGGT | -0.104 E-score
CAGCGGTA | 0.0679 E-score
AATTTACT | -0.15 E-score
CAGCTCCA | -0.202 E-score
ACCACTAG | -0.0541 E-score
CGGTCTCA | 0.197 E-score
ACTGGCGA | -0.151 E-score
CCAGTGTC | 0.115 E-score
CAATTCCG | -0.0302 E-score
CGCCTTGC | -0.146 E-score
GGTACTTA | 0.00543 E-score
CGATATCC | 0.476 E-score
CATAACGC | -0.0736 E-score
GACTCTTA | -0.154 E-score

Sequence | binding signal
GTCGTGGA | -0.135 E-score
ACGATTTC | -0.105 E-score
CACCGTTC | 0.111 E-score
CCCAAACG | -0.0457 E-score
CGGAATCC | 0.116 E-score
ACCACTCC | -0.00203 E-score
CACTGCGG | 0.0121 E-score
CGTGTGTC | -0.144 E-score
CAGTACAA | -0.0185 E-score
ATAGAAAG | 0.0623 E-score
CATTCTAG | -0.0986 E-score
AGTAATTA | -0.096 E-score
ATTAACGG | -0.00752 E-score
TAGTGTCA | 0.245 E-score
AAAGGAGA | 0.0556 E-score
CGGGAAGC | -0.107 E-score
CCGAAACA | -0.0822 E-score
CCAAGCAC | 0.077 E-score
CGCATACC | 0.266 E-score
CTCTGGGA | -0.0777 E-score
AGCCCATA | 0.0811 E-score
CTCTGCAA | -0.00306 E-score
ACCTCGAT | 0.233 E-score
AGTGTAAA | -0.188 E-score
AGGAAGAA | -0.263 E-score

Sequence | binding signal
CGAAATCC | 0.07 E-score
AGCAGATC | 0.286 E-score
GGATAAAC | 0.294 E-score
AAAGCGGC | -0.146 E-score
CCTCCGCA | -0.115 E-score
GTCGCGAA | 0.0741 E-score
AGTATGAC | 0.0709 E-score
GTCGTAAA | -0.112 E-score
ATTAACGC | -0.133 E-score
TGGGTAAA | -0.109 E-score
CGTTTGTA | -0.128 E-score
CAAGAAAG | -0.186 E-score
AAGTGCTA | -0.192 E-score
AGGACACA | -0.102 E-score
AGGCCGTC | -0.132 E-score
ACATACTC | 0.073 E-score
GTGAACGA | -0.155 E-score
AGAGCAAC | -0.273 E-score
GCTTACCA | 0.0292 E-score
AGCCAGAT | 0.176 E-score
AATGGGCT | -0.0623 E-score
CAATCACA | -0.0869 E-score
GCTATGAC | -0.166 E-score
AACTCGCG | -0.116 E-score
GAGAGTCC | -0.13 E-score

Sequence | binding signal
CCCCTGAC | 0.161 E-score
CACTGGCG | -0.107 E-score
AGAGCAAG | -0.0193 E-score
CCTAGGGA | 0.109 E-score
TGTGGCAA | -0.225 E-score
ACCCTGGC | -0.00464 E-score
GACACAGA | -0.0207 E-score
ACCATGGG | -0.0162 E-score
ATTCGGCC | -0.128 E-score
CCGCTCGA | 0.0783 E-score
TACTAATA | 0.17 E-score
ACTGTGTC | -0.159 E-score
CACCCTGA | 0.287 E-score
CTCTGGGC | -0.162 E-score
ATAATTTG | 0.124 E-score
CTCCTCCA | 0.147 E-score
GGTGAGAA | 0.162 E-score
ACCCTAAA | 0.0849 E-score
CCCGTAAG | 0.119 E-score
AAGCGGAA | -0.171 E-score
AGCTCAGG | -0.102 E-score
ATATCCTA | 0.415 E-score
AGACGTCG | 0.0141 E-score
AATAGGGA | 0.0533 E-score
ACCCATGA | 0.0803 E-score

Sequence | binding signal
CATTATGG | -0.0746 E-score
ACGCGCGC | -0.177 E-score
AGATAGAC | 0.0724 E-score
GTTATCGA | 0.129 E-score
CAGTTGTC | -0.118 E-score
ATTGCCCC | 0.0985 E-score
GCCGTTCC | 0.00558 E-score
AGGTGACT | -0.143 E-score
ACGAGACC | 0.0931 E-score
CTGTTGAA | -0.0561 E-score
CTCTACAA | -0.125 E-score
AATCATCT | 0.14 E-score
ACCTTTCA | -0.154 E-score
ATGCAGGG | -0.0123 E-score
CCCAACTA | 0.0977 E-score
AGAGAGTG | -0.16 E-score
GGATCGCC | 0.342 E-score
AATGGACG | -0.214 E-score
CTAGGTGA | -0.0774 E-score
ATTGACGC | -0.149 E-score
CACAGGGG | 0.0334 E-score
GCGGACTA | -0.00571 E-score
AATGCGCC | -0.103 E-score
TGACTCCA | -0.0674 E-score
CTCCGGAA | -0.127 E-score

Sequence | binding signal
CTGCAGGC | -0.203 E-score
GATCTTCA | 0.274 E-score
CGACATGA | -0.00218 E-score
AGCTGATA | 0.357 E-score
GGTAAGGA | -0.146 E-score
CGATACCG | 0.45 E-score
CACAGCTC | -0.178 E-score
CATTCAAA | -0.166 E-score
AAGGTTTG | -0.0832 E-score
TACAACTA | 0.0301 E-score
ATATGAAT | 0.19 E-score
CAAGGAGC | -0.0849 E-score
TAGTATGA | 0.132 E-score
CTCACAGC | -0.0597 E-score
CCGAAGGA | -0.055 E-score
ACTTTAAT | -0.03 E-score
CCCGGGTA | 0.228 E-score
GAAGGGGA | -0.0455 E-score
ACGTGTTA | -0.0702 E-score
GGCGCCGA | -0.215 E-score
ATCCACGC | 0.114 E-score
CAGTCCAA | -0.111 E-score
GAGGAAGA | 0.0544 E-score
ATAGCAAT | 0.182 E-score
GCGCACAC | -0.00943 E-score

Sequence | binding signal
CCTATAAC | 0.0784 E-score
CACAGAAC | -0.0647 E-score
ACCAGCTG | -0.0804 E-score
AAGTGGAA | -0.00252 E-score
TAAGCTGA | -0.066 E-score
GGTATCTA | 0.426 E-score
ATGATCGG | 0.294 E-score
ACTCGGCA | -0.07 E-score
GCCGGCAC | -0.097 E-score
AATTTGGG | -0.197 E-score
GGGACCGA | -0.0812 E-score
CAGTGTGC | -0.274 E-score
CGGCTCTA | 0.0423 E-score
ACTGACAT | -0.124 E-score
AGACTCCT | -0.139 E-score
AATTCATG | -0.000625 E-score
CCACACCG | 0.151 E-score
GACCCAGC | -0.0994 E-score
ATAGCGTA | 0.0667 E-score
ACCCCATG | 0.0561 E-score
CATATGAC | 0.166 E-score
CCACTGTA | 0.147 E-score
